Data on seven compounds can be found in paper PMC12969314 (European journal of medicinal chemistry, 2022).

For this experiment, the target named is σ1 receptor (Homo sapiens, UniProt Q99720). The class given is binding. The settings on record: for selectivity σ1:D4: ratio, σ1 over D4; for σ1 % inhibition: printed in Ki column, concentration not printed for σ1.

Where two headings read alike, the source gives them in different places. A value given as a limit tells only on which side of the number the result lay.

As usually defined, the Ki is the dissociation constant of the complex between target and ligand, obtained from inhibition or displacement.

Chain of UniProt Q99720 (Q99720 whole entry): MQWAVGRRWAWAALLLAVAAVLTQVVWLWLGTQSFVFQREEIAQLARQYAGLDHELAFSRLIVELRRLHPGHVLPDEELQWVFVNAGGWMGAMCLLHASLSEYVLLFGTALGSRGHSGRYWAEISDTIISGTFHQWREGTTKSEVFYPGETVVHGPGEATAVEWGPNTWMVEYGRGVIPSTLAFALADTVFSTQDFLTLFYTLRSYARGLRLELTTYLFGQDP

In the case of `Fc1ccc(COC2CCN(Cc3ccc4[nH]ncc4c3)CC2)cc1F` [Compound 12a, 5-((4-((3,4-difluorobenzyl)oxy)piperidin-1-yl)methyl)-1H-indazole], the “selectivity σ1:D4” value is given as above 950.
As for `Cc1cccc(CO[C@H]2CCCN(Cc3cn4ccccc4n3)C2)n1` [Compound 17h, (S)-2-((3-((6-methylpyridin-2-yl)methoxy)piperidin-1-yl)methyl)imidazo[1,2-a]pyridine], the σ1 % inhibition is listed as 39%; NA.
`c1cncc(COC2CCN(Cc3cn4ccccc4n3)CC2)c1` [Compound 17e, 2-((4-(pyridin-3-ylmethoxy)piperidin-1-yl)methyl)imidazo [1,2-a]pyridine] displayed a Ki of 170 nM.
On to `COc1ccc(CO[C@H]2CCCN(Cc3cccc(C)c3)C2)cc1F` [Compound 19h, (S)-3-((3-fluoro-4-methoxybenzyl)oxy)-1-(3-methylbenzyl)piperidine], for which the “σ1 pKi” value ([3H]Pentazocine, HEK293 membranes) stood at 8.28. The Ki (read-out: σ1 Ki, [3H]Pentazocine, HEK293 membranes, triplicate) was 5.2 nM.
Consider `Cc1cccc(CO[C@H]2CCCN(Cc3ncc4ccccn34)C2)n1` [Compound 15e, (S)-3-((3-((6-methylpyridin-2-yl)methoxy)piperidin-1-yl)methyl)imidazo[1,5-a]pyridine], for which the σ1 % inhibition is 15%; NA.
For `Fc1cc(COC2CCN(Cc3ccc4[nH]ncc4c3)CC2)ccc1Cl` [Compound 12b, 5-((4-((4-chloro-3-fluorobenzyl)oxy)piperidin-1-yl)methyl)-1H-indazole], the “selectivity σ1:D4” value stood at 828.
As for `Cc1csc(OC[C@@H]2CN(Cc3cn4ccccc4n3)CCO2)n1` [Compound 17j, (S)-4-(imidazo[1,2-a]pyridin-2-ylmethyl)-2-(((4-methylthiazol-2-yl)oxy)methyl)morpholine], the σ1 % inhibition is reported as 6%; NA.
